# Experimental data: the supplement of paper PMC8813932
# Where a name gives a salt, the structure may show the parent alone. ± gives the standard deviation of the averaged measurements. This is one part of the list. Most values come without repeats; read them as rough.
# How the values were obtained:
# Assay in all cases: log2 surviving fraction relative to plate median (drug vs vehicle, or drug+dl922-947 vs dl922-947 alone); ovarian cancer lines: OVCAR4 is platinum-sensitive while Ov4Cis resists cisplatin and Ov4Carbo carboplatin; higher = more cell survival
# Details in all cases: compound concentration: 10 uM, 192 h
# OVCAR4 = test system: OVCAR4
# Ov4Carbo = test system: Ov4Carbo
# Ov4Cis = test system: Ov4Cis
# [1] = dl922-947 oncolytic adenovirus co-treatment: MOI 10
# [2] = dl922-947 oncolytic adenovirus co-treatment: none
Compound,log2 surviving fraction (OVCAR4; [1]),log2 surviving fraction (OVCAR4; [2]),log2 surviving fraction (Ov4Carbo; [1]),log2 surviving fraction (Ov4Carbo; [2]),log2 surviving fraction (Ov4Cis; [1]),log2 surviving fraction (Ov4Cis; [2])
C#Cc1cccc(Nc2ncnc3cc(OCCOC)c(OCCOC)cc23)c1 [Erlotinib HCl],0.395 ± 0.58,-3.62 ± 4.5,0.668,-2.43,1.06,0.707
CC(C)NCC(O)COc1cccc2ccccc12 (stereo not drawn) [Propranolol HCl],-0.838 ± 0.99,-0.184 ± 0.6,-0.403,-0.37,-0.729,0.0304
Cc1ccc(S(=O)(=O)NC(=O)NN2CC3CCCC3C2)cc1 (stereo not drawn) [Gliclazide (Diamicron)],0.295 ± 0.14,0.71 ± 0.091,-0.723,-1.04,0.254,0.41
CCN(CCCc1ccccc1)CCCc1ccccc1 [Alverine Citrate],-0.335 ± 0.96,0.594 ± 0.88,-1.86,2.13,-0.916,-0.899
C=C(C)[C@@H]1[C@H]2OC(=O)[C@@H]1[C@]1(O)C[C@H]3O[C@]34C(=O)O[C@H]2[C@]14C [Picrotoxinin],0.0341 ± 0.35,-0.0758 ± 0.43,0.0412,-0.674,0.359,0.191
Cc1ccc(C(=O)C(C)CN2CCCCC2)cc1 (stereo not drawn) [Tolperisone HCl],0.00404 ± 0.16,-0.421 ± 0.58,-0.216,-0.0823,0.427,-0.456
C[C@H]1C[C@H]2[C@@H]3CCC4=CC(=O)C=C[C@]4(C)[C@H]3C(=O)C[C@]2(C)[C@@]1(O)C(=O)CO [Betapar (Meprednisone)],0.346 ± 0.47,-0.0783 ± 0.47,0.231,-0.627,-0.38,0.108
CC[N+](CC)(CC)CCOc1cccc(OCC[N+](CC)(CC)CC)c1OCC[N+](CC)(CC)CC [Gallamine triethiodide (Flaxedil)],0.196 ± 0.22,-0.0116 ± 0.65,0.558,0.592,0.775,0.662
COc1cc(C)c(/C=C/C(C)=C/C=C/C(C)=C/C(=O)O)c(C)c1C [Acitretin],-0.218 ± 0.22,-0.8384 ± 0.0054,0.00391,-0.0404,-0.827,-0.574
O=c1oc2cc(O)ccc2s1 [Tioxolone],0.163 ± 0.32,0.217 ± 0.28,-0.809,-0.94,0.723,0.508
C[C@]12C=CC(=O)C=C1CC[C@H]1[C@@H]3C[C@@H](O)[C@](O)(C(=O)CO)[C@@]3(C)C[C@H](O)[C@@]12F [Triamcinolone (Aristocort)],0.37 ± 0.54,0.441 ± 0.84,-0.387,0.567,0.513,-0.45
CO[C@H]1C[C@@H]2CC[C@@H](C)[C@@](O)(O2)C(=O)C(=O)N2CCCC[C@H]2C(=O)O[C@H]([C@H](C)C[C@@H]2CC[C@@H](OC(=O)C(C)(CO)CO)[C@H](OC)C2)CC(=O)[C@H](C)/C=C(\C)[C@@H](O)[C@@H](OC)C(=O)[C@H](C)C[C@H](C)/C=C/C=C/C=C/1C [Temsirolimus (Torisel)],-2.12 ± 0.38,-6.34 ± 0.88,-2,-6.89,-1.74,-6.07
CNCCc1ccccn1 [Betahistine 2HCl],-0.162 ± 0.16,0.153 ± 0.28,0.373,0.137,-0.65,0.237
CC(C)n1c(/C=C/C(O)CC(O)CC(=O)O)c(-c2ccc(F)cc2)c2ccccc21 (stereo not drawn) [Fluvastatin sodium (Lescol)],-1.57 ± 0.7,-5.02 ± 0.52,-1.9,-7.87,-0.69,-5.24
C[N+]1(C)[C@@H]2C[C@@H](OC(=O)C(O)(c3cccs3)c3cccs3)C[C@H]1[C@@H]1O[C@@H]12 [Tiotropium Bromide hydrate],-0.174 ± 0.25,0.331 ± 0.62,1.14,0.0226,-0.377,0.612
NS(=O)(=O)c1cc2c(cc1C(F)(F)F)NC(Cc1ccccc1)NS2(=O)=O (stereo not drawn) [Bendroflumethiazide],1.03 ± 1.2,1.38 ± 1.9,-0.321,1.04,0.294,0.618
COc1cccc2c1C(=O)c1c(O)c3c(c(O)c1C2=O)C[C@@](O)(C(=O)CO)C[C@@H]3O[C@H]1C[C@H](N)[C@@H](O)[C@H](C)O1 [Epirubicin Hydrochloride],-7.85 ± 1.8,-9.28 ± 8.7,-6.31,-11,-3.99,-10.8
Cc1ccnc2c1NC(=O)c1cccnc1N2C1CC1 [Nevirapine (Viramune)],-0.596 ± 0.65,-0.508 ± 0.35,1.37,1.59,-1.63,-0.195
CCC(=O)OCC(=O)[C@@]1(OC(=O)CC)[C@@H](C)C[C@H]2[C@@H]3CCC4=CC(=O)C=C[C@]4(C)[C@@]3(Cl)[C@@H](O)C[C@@]21C [Beclomethasone dipropionate],1.52 ± 0.13,-0.994 ± 0.5,0.0193,-2.63,0.879,-0.327
CN(C)c1cc(NC(=O)CNC(C)(C)C)c(O)c2c1C[C@H]1C[C@H]3[C@H](N(C)C)C(O)=C(C(N)=O)C(=O)[C@@]3(O)C(O)=C1C2=O [Tigecycline],-0.014 ± 0.31,-0.125 ± 0.47,1.65,0.376,-0.325,-0.249
N=C(N)NCCN1CCCCCCC1 [Guanethidine Sulfate],0.117 ± 0.18,0.565 ± 1,0.57,0.2,0.174,0.325
Nc1ccc(C(=O)NCC(=O)O)cc1 [Sodium 4-aminohippurate Hydrate],0.0362 ± 0.43,-0.581 ± 1.4,0.392,-0.701,-1.54,-0.262
C[C@]12CC[C@@H]3c4ccc(O)cc4CC[C@H]3[C@@H]1C[C@@H](O)[C@@H]2O [Estriol],0.815 ± 0.75,0.132 ± 0.47,0.534,0.9,0.415,0.402
